Some of the results follow.
The sequences below were run on PF3D7_0420300 AP2 domain 1 (GST-tagged) (assay: gcPBM binding intensity (ln(normalized median fluorescence intensity)); higher = stronger DNA binding).
Procedure, shortened: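 The binding buffer was 1× PBS containing 1% milk, 0.2 mg/ml BSA, 0.5% salmon testes DNA and 0.03% Triton X-100. In it, GST-tagged P. falciparum DNA-binding domains expressed in E. coli were applied for 1 h to an Agilent 4 × 180k array of primer-extended double-stranded 36-bp intergenic genomic probes plus negative controls. Binding intensity, read with Alexa488 anti-GST antibody and a 488 nm scan, is the highest Masliner-normalised natural-log median intensity across replicate spots of either probe orientation.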

Row | Sequence | gcPBM binding intensity (ln)
1 | TTTTATAAAATATAATATAATAATATATGTATAATA [CACACA_negctrl_site1788] | 8.96
2 | ATATATCTACAAATATGTACACACACACATATATAT [XGTACX_site1075] | 10.1
3 | AAAAAAAAAAAAAAAAAAAAAAAAATCACACATTGG [TGCATGCA_negctrl_site412] | 9.41
4 | TTTTGGATGTATTATACATGCATATTATTATAATAT [TGCATGCA_site997] | 8.99
5 | ATATATATATCTAATTGTACATATTTTATAAATAAG [XGTACX_site4840] | 9.03
6 | AAATACTGATTTGGTTGTACATGTGCACTATATAAC [XGTACX_site3795] | 9.35
7 | AAAAATTAAATGTACACACACCTTAAACAATGTCAT [CACACA_site6958] | 9.66
8 | TATAATCTAACATAATGTACATGTATATGCACTTTA [XGTACX_site369] | 9.07
9 | ATAAATATATTTATATGTACATATAATTTTACATAT [XGTACX_site5440] | 9.19
10 | TTTTTTACAATTAACACACTCAAAAATAATATTAAA [CACACA_site5198] | 9.06
11 | AATTTTTTAAATGTGTGTACATATTATTTAAATAAT [XGTACX_site5967] | 9.31
12 | TATATTATATATATATGTACATATGGCAAAACATTA [XGTACX_site7958] | 9.33
13 | AAAAAAAAAAAAAAATGTACCCATAAAATAAGCATT [XGTACX_site8576] | 9.51
14 | AATCACAACGAACACACACACAAAAAAAAAAAAAAA [CACACA_site6790] | 9.58
15 | AAAAAAAATAATTTGCGTACATAAAAATTTATAGGA [XGTACX_site3016] | 9.19
16 | AAATTTTTTTTTGTCATATGATGTTTGAACCCAAAT [CACACA_negctrl_site1659] | 9.05
17 | TCCGTATATTTATACGCATGCATTATGAACATTGTT [TGCATGCA_site613] | 9.28
18 | TTACATTGTAAAAAGTGTACATATAATTTAATTAAT [XGTACX_site1834] | 9.14
19 | GGATTACAAATAGGTTGTACGTTTTTTTTTTTTTCT [XGTACX_site3605] | 9.38

Row | Sequence | gcPBM binding intensity (ln)
20 | ATGTAGACTGAAACCACACACACATATATATATATA [CACACA_site606] | 9.77
21 | AATATAAATACTCCTACACACATATAAATATAAATA [CACACA_site7419] | 9.74
22 | TCCACATTAATGTAATGTACAAAATTAGAAAATAAA [XGTACX_site6287] | 9.06
23 | TTTTGATTAAGTGAATTTTTTTATTTATATAAATAT [TGCATGCA_negctrl_site479] | 9
24 | CATACATACATATATACACACATATATAATAATATA [CACACA_site2678] | 9.71
25 | TACGAATTAAAAAAGAGTACAAATAAAATATCTACA [XGTACX_site7412] | 9.18
26 | AATTAGCTCAAAGGTTGTACAAATATATTTTAATGG [XGTACX_site2352] | 9.21
27 | TTTTAAACACCAATCAAAAAAATATAAATATAAATA [TGCATGCA_negctrl_site552] | 9.08
28 | AGGGAATAAGTAAGGTGTACATAATTATGTTACTTT [XGTACX_site6152] | 9.36
29 | TTTTTTTATTTTATAAAGCAAAAATAAGAATGAAAT [XGTACX_negctrl_site270] | 8.92
30 | TATATGTATGTATGTACACACAAAAAATGGAATATA [CACACA_site3717] | 9.67
31 | TGTTGATTTCTCAAATGTACTTTACTTTTCTTCAGA [XGTACX_site7916] | 9.08
32 | AATTTATTTTTTTAATGTACATATGGTATAAATATA [XGTACX_site8012] | 9.16
33 | TTTTTTTTTTTTAATTGTACATTTTATATAAACTTT [XGTACX_site6806] | 9.16
34 | AATATATATATATGTACACACTCCAATACATATACA [CACACA_site2682] | 9.42
35 | TTAAGAATATCTTAGAGTACATTTTATCATCTTAAA [XGTACX_site8298] | 8.78
36 | TCTTTTTAAATTACTATAATACATTCATAAATTATA [GTGCAC_negctrl_site448] | 8.89
37 | TGATTTTTTCATATTCTACACACGTGAACAAATGTG [CACACA_site8987] | 9.34
38 | TTAATTATTATATAAGTGCAATAATAAAAAGTTGTA [GTGCAC_site9552] | 9.18

Row | Sequence | gcPBM binding intensity (ln)
39 | TTGTTAATAAATAAATAAATAAATATATTTATATAT [GTGCAC_negctrl_site271] | 8.89
40 | ATATATATTTATATTTGTACGAATTAAAATTTTTTA [XGTACX_site5200] | 9.04
41 | ATTTAAAACAAAAGTAGTACGTCTAATAAATTCAAC [XGTACX_site4344] | 9.25
42 | TTATCAATAAAATGCACACACTGTAATATTATTAAA [CACACA_site6055] | 9.37
43 | ATAGCTTTTATTTAAAGTACAAAAAGGATGTTGAAA [XGTACX_site3810] | 9.04
44 | AGACAAAATGTTTGAAGTACTTTTTATCAAATTAAA [XGTACX_site8885] | 8.94
45 | AAAAAAAAAAAACACACACACACACCCATACATACA [CACACA_site707] | 10.2
46 | CAATTTTTTAAATGCACACAAAAGGAATAAATAAAT [CACACA_site544] | 9.46
47 | AAGAAGAAATGCTTTGCATGCAAATTTTATGCCAAC [TGCATGCA_site721] | 9.21
48 | AACAATTGGAATAACGCATGCATTTATAATATAGAA [TGCATGCA_site298] | 9.25
49 | TGAATATTCCTATGCACACAAATTAAAATACATAAT [CACACA_site4403] | 9.5
50 | ACAAATTTATACTTAAAACACACGTAATCATTTATA [CACACA_site1636] | 9.23
51 | TAAAATAATTTATGCATACACACATATATATATATA [CACACA_site4021] | 9.46
52 | TACAAAAAAAAAAAATAGATAAAATAATAATCAAAT [TGCATGCA_negctrl_site524] | 9.41
53 | ATATATTGAACATATTGTACATTTTGTTAATATTTT [XGTACX_site7622] | 9.21
54 | AAATATATAAAATATACACACAGTAATATATATATA [CACACA_site1385] | 9.54
55 | TCTTGTTTTCAAATATGTACATAGAATAGACATTTT [XGTACX_site684] | 8.91
56 | TATATATAAATATTCAGTACATAGTATTATTAAGTA [XGTACX_site1980] | 9.17

Reference: the supplement of paper PMC11417369
